Measurements as given in patent US6653306B1, “Epoxy-steroidal aldosterone antagonist and angiotensin II antagonist combination therapy” (G.D. Searle & Co., priority 1995, dated 2003).
“And” between values parts separate entries of the source, which are not always exact repeats. Equal entries are not always repeated. For some assays here: The name of at least one read-out is uncertain. For some assays here: For at least one compound, name, drawing or mass did not settle the structure.

Tested on: pressor response to AII
Assay: Assay C: In vivo intragastric pressor assay response for AII antagonists
Set-up: species or system rat
Conditions: dose cell empty (dose not given), intragastric, or intraduodenal for examples listed
Experimental: Assay C: In Vivo Intragastric Pressor Assay Response for AII Antagonists
Male Sprague-Dawley rats weighing 225-300 grams were anesthetized with methohexital (30 mg/kg, i.p.) and catheters were implanted into the femoral artery and vein. The catheters were tunneled subcutaneously to exit dorsally, posterior to the head and between the scapulae. The catheters were filled with heparin (1000 units/ml of saline). The rats were returned to their cage and allowed regular rat chow and water ad libitum. After full recovery from surgery (3-4 days), rats were placed in Lucite holders and the arterial line was connected to a pressure transducer. Arterial pressure was recorded on a Gould polygraph (mmHg). Angiotensin II was administered as a 30 ng/kg bolus via the venous catheter delivered in a 50 μl volume with a 0.2 ml saline flush. The pressor response in mm Hg was measured by the differer.-:e from pre-injection arterial pressure to the maximum pressure achieved. The AII injection was repeated every 10 minutes until three consecutive injections yielded responses within 4 mmHg of each other. These three responses were then averaged and represented the control response to AII. The test compound was suspended in 0.5% methylcellulose in water and was administered by gavage. The volume administered was 2 ml/kg body weight. The standard dose was 3 mg/kg. Angiotensin II bolus injections were given at 30, 45, 60, 75, 120, 150, and 180 minutes after gavage. The pressor response to AII was measured at each time point. The rats were then returned to their cage for future testing. A minimum of 3 days was allowed between tests. Percent inhibition was calculated for each time point following gavage by the following formula:
[(Control Response—Response at time point)/Control Response]×100.

Row | Structure (SMILES) | Assay C Duration
1 | CCCCc1nn(CCCC)c(=O)n1Cc1ccc(-c2ccccc2C(=O)O)cc1 [Compound 78] | 60 to 100 min
2 | CCCCc1nn(CCCC)c(=O)n1Cc1ccc(-c2ccccc2-c2nnn[nH]2)cc1 [Compound 79] | >200 min and >180 min
3 | CCCCc1nn(CCCc2ccccc2)c(=O)n1Cc1ccc(-c2ccccc2-c2nn[nH]n2)cc1 [Compound 81] | 180 min
4 | CCCCc1nn(CC(O)c2ccccc2)c(=O)n1Cc1ccc(-c2ccccc2-c2nn[nH]n2)cc1 (centres unmarked) [Compound 83] | >180 min
5 | CCCCc1nn(CC(=O)OC(C)(C)C)c(=O)n1Cc1ccc(-c2ccccc2-c2nn[nH]n2)cc1 [Compound 84] | 30 min
6 | CCCCc1nn(CC(OCC(=O)O)c2ccccc2)c(=O)n1Cc1ccc(-c2ccccc2-c2nn[nH]n2)cc1 (centres unmarked) [Compound 91] | >180 min
7 | CCCCc1cn(CCc2ccccc2)c(=O)n1Cc1ccc(-c2ccccc2-c2nnn[nH]2)cc1 [Compound 133] | 90 to 120 min
8 | CCCCc1nc(CCCC)n(Cc2ccc(-n3c(Cl)cc(Cl)c3-c3nnn[nH]3)cc2)n1 [Compound 143] | 75 min

Tested on: rabbit aortic rings
Assay: Assay B: In vitro vascular smooth muscle response for AII (antagonist activity, pA2)
Type: cell-based
Conditions: two values per cell separated by / are separate determinations
Experimental: Assay B: In Vitro Vascular Smooth Muscle-response for AII
The compounds of the invention were tested for antagonist activity in rabbit aortic rings. Male New Zealand white rabbits (2-2.5 kg) were sacrificed using an overdose of pentobarbital and exsanguinated via the carotid arteries. The thoracic aorta was removed, cleaned of adherent fat and connective tissue and then cut into 3-mm ring segments. The endothelium was removed from the rings by gently sliding a rolled-up piece of filter paper into the vessel lumen. The rings were then mounted in a water-jacketed tissue bath, maintained at 37° C., between moveable and fixed ends of a stainless steel wire with the moveable end attached to an FT03 Grass transducer coupled to a Model 7D Grass Polygraph for recording isometric force responses. The bath was filled with 20 ml of oxygenated (95% oxygen/5% carbon dioxide) Krebs solution of the following composition (mM): 130 NaCl, […], 15 KCl, 1.2 NaH2PO4, 1.2 MgSO4, 2.5 CaCl2, and 11.4 glucose. The preparations were equilibrated for one hour before approximately one gram of passive tension was placed on the rings. Angiotensin II concentration-response curves were then recorded (3×10^−10 to 1×10^−5 M). Each concentration of AII was allowed to elicit its maximal contraction, and then AII was washed out repeatedly for 30 minutes before rechallenging with a higher concentration of AII. Aorta rings were exposed to the test antagonist at […] for 5 minutes before challenging with AII. Adjacent segments of the same aorta ring were used for all concentration-response curves in the presence or absence of the test antagonist. The effectiveness of the test compound was expressed in terms of pA2 values and were calculated according to H. O. Schild [Br. J. Pharmacol, Chemother., 2,189-206 (1947)]. The pA2 value is the concentration of the antagonist which increases the EC50 value for AII by a factor of two. Each test antagonist was evaluated in aorta rings from two rabbits.

Row | Structure (SMILES) | Assay B pA2
9 | CCCCc1nc2c(OC(=O)C(C)C)nnc(O)c2n1Cc1ccc(-c2ccccc2-c2nnn[nH]2)cc1 [Compound 119] | 9.00
10 | CCCCc1nc2c(OC(=O)C3CCCCC3)nnc(O)c2n1Cc1ccc(-c2ccccc2-c2nnn[nH]2)cc1 [Compound 120] | 8.77
11 | CCCCc1nc(C(F)(F)CCC)n(Cc2ccc(-c3ccccc3-c3nnn[nH]3)nc2)n1 [Compound 248] | 7.50
12 | CCCCc1nc(C(=O)N(C)C(C)(C)C)nn1Cc1ccc(-c2ccccc2-c2nnn[nH]2)nc1 [Compound 255] | 7.46
13 | CCCCc1nc(C(=O)NC)nn1Cc1ccc(-c2ccccc2-c2nnn[nH]2)nc1 [Compound 257] | 6.68
14 | CCCCc1nc(C)nn1Cc1ccc(-c2ccccc2C(=O)O)cc1 [Compound 280] | 6.35

Biological target: angiotensin II AT1 receptor
Assay: Assay A: Angiotensin II binding activity (125I-AII displacement, rat uterine membrane preparation)
Conditions: not given
Experimental: Assay A: Antiotensin II Binding Activity
Compounds of the invention were tested for ability to bind to the smooth muscle angiotensin II receptor using a rat uterine membrane preparation. […] Rat uterine membranes were prepared from fresh tissue. All procedures were carried out at 4° C. Uteri were stripped of fat and homogenized in phosphate-buffered saline at pH 7.4 containing 5 mM EDTA. The homogenate was centrifuged at 1500×g for 20 min., and the supernatant was recentrifuged at 100,000×g for 60 min. The pellet was resuspended in buffer consisting of 2 mM EDTA and 50 mM Tris-HCl (pH 7.5) to a final protein concentration of 4 mg/ml. […] The reaction was initiated by the addition of membrane protein and the mixture was incubated at 25° C. for 60 min. The incubation was terminated with ice-cold 50 mM Tris-HCl (pH 7.5) and the mixture was filtered to separate membrane-bound labelled peptide from the free ligand. The incubation tube and filter were washed with ice-cold buffer. Filters were assayed for radioactivity in a Micromedic gamma counter.
Nonspecific binding was defined as binding in the presence of 10 μM of unlabelled AII. Specific binding was calculated as total binding minus nonspecific binding. […] Binding data were analyzed by a nonlinear least-squares curve fitting program.

Row | Structure (SMILES) | IC50 [nM]
15 | CCCCc1nc(C(F)(F)C(F)(F)C(F)(F)F)nn1Cc1ccc(-c2ccccc2-c2nnn[nH]2)cc1 [Compound 70] | 44
16 | CCCCc1nc2c(CCC)nnc(O)c2n1Cc1ccc(-c2ccccc2-c2nnn[nH]2)cc1 [Compound 113] | 12
17 | CCCCc1nc2c(O)nnc(CCC)c2n1Cc1ccc(-c2ccccc2-c2nn[nH]n2)cc1 [Compound 114] | 400
18 | CCCCc1nc2cnnc(O)c2n1Cc1ccc(-c2ccccc2-c2nnn[nH]2)cc1 [Compound 115] | 11
19 | CCCCc1nc2c(O)nncc2n1Cc1ccc(-c2ccccc2-c2nnn[nH]2)cc1 [Compound 116] | 230
20 | CCCCc1nc2cnncc2n1Cc1ccc(-c2ccccc2-c2nnn[nH]2)cc1 [Compound 117] | 170
21 | CCCCc1nc2c(OC(=O)C(C)C)nnc(O)c2n1Cc1ccc(-c2ccccc2-c2nnn[nH]2)cc1 [Compound 119] | 16
22 | CCCCc1nc2c(OC(=O)C3CCCCC3)nnc(O)c2n1Cc1ccc(-c2ccccc2-c2nnn[nH]2)cc1 [Compound 120] | 25
23 | CCCCc1nc2c(OC(=O)C(C)(C)C)nnc(OC(=O)C(C)(C)C)c2n1Cc1ccc(-c2ccccc2-c2nnn[nH]2)cc1 [Compound 123] | 50
